According to PubChem BioAssay (NCATS):
Inconclusive means that the source gave no clear call. Such entries were picked first, then a sample of the others. A potency beside an inconclusive call is a rough fit, not a confirmed value. Active and inactive are the calls of the source. The call rests on the fitted dose curve; in most records, active means well fitted curve in the direction sought with a large enough effect; inconclusive means small, poorly fitted or top-dose-only effect, or another doubt; inactive means no such curve, though single readings can be large; an effect the other way counts as inactive or inconclusive.

Columns and labels:
[1] = Viability qHTS for spleen associated tyrosine kinase inhibitor (SYKi) naive MV4-11 cells (AID 1963823); conditions: MV4-11 AML viability, CellTiter-Glo luminescence, 72 h; viability (% of control): at 45 µM (top of the series); further: nearly all actives have a fitted effect of over 40% in size
Outline: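 Seeding of 500 SYKi-naive MV4-11 cells per well onto pre-dispensed compounds preceded a 72 hr incubation at 37 C. Luminescent CellTiter-Glo signal, read after 10 min at room temperature, reflected viable cells.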

[2] = Viability qHTS for spleen associated tyrosine kinase inhibitor (SYKi) drug resistant MV4-11 cells (AID 1963824); conditions: SYKi-resistant MV4-11 viability, CellTiter-Glo, 72 h; series mostly up to 45 µM; further: nearly all actives have a fitted effect of over 35% in size
Outline: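 SYK-inhibitor-resistant MV4-11 AML cells were seeded at 500 per well onto compound and cultured 72 hours (37 °C, 5% CO2). CellTiter-Glo was then added, and after 10 min at room temperature, luminescence gave viability.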

[3] = Cellular viability qHTS for adrenocortical cancer (ACC) cell line SW-13 (AID 1963989); conditions: SW-13 ACC cells viability, CellTiter-Glo, 48 h; activity (max response): active compounds read low; further: nearly all actives have a fitted effect of over 65% in size;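 on activity (max response): cells grown in serum-free medium with ITS supplement; on the % scale 0 is the no-effect control and ±100 the full control effect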
Outline: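 IC50 and maximal-response values come from four-parameter logistic fits of titration data. SW-13 cells in serum-free medium received compounds (up to 46 uM final) for 48 h before CellTiter-Glo luminescence.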
Potency means the concentration at half of the fitted maximal effect; tags describe the fitted curve by direction and shape.

Compound | Potency [1] | Potency [2] | activity (max response) [3] | Potency [3]
CO[C@@H]1[C@@H](O[C@@H]2O[C@H](C)[C@@H](O[C@H]3C[C@@](C)(O)[C@@H](O)[C@H](C)O3)[C@H](N(C)C)[C@H]2O)[C@@H](CC=O)C[C@@H](C)[C@@H](O[C@@H]2CC[C@H](N(C)C)[C@@H](C)O2)/C=C/C=C/C[C@@H](C)OC(=O)C[C@H]1OC(C)=O | inconclusive: 13.3 µM [cytotoxic, partial curve] | inconclusive: 11.9 µM [cytotoxic, partial curve] | inactive: -1.59% | –
C[C@@H]1[C@H](O)[C@@H](C)/C=C/C=C/C=C/C=C/C=C/C=C/C=C/[C@H](O[C@@H]2O[C@H](C)[C@@H](O)[C@H](N)[C@@H]2O)C[C@@H]2O[C@](O)(C[C@@H](O)C[C@@H](O)[C@H](O)CC[C@@H](O)C[C@@H](O)CC(=O)O[C@H]1C)C[C@H](O)[C@H]2C(=O)O | inactive | inconclusive: 18.6 µM [cytotoxic, partial curve] | inactive: -9.6% | –
Oc1cccc(O)c1 | inconclusive: 0.0024 µM [rising, full curve] | inconclusive: 0.0042 µM [rising, full curve, poor fit] | inactive: 6.94% | –
COc1cccc2c1C(=O)c1c(O)c3c(c(O)c1C2=O)C[C@@](O)(/C(CO)=N/NC(=O)CCCCCN1C(=O)C=CC1=O)C[C@@H]3O[C@H]1C[C@H](N)[C@H](O)[C@H](C)O1 | active: 0.132 µM | active: 0.186 µM | – | active: 3.55 µM
CC(C)[C@H]1C(=O)N[C@@H](CCCN=C(N)N)C(=O)NCC(=O)N[C@@H](CC(=O)O)C(=O)N[C@H](Cc2ccccc2)C(=O)N1C | inactive | inactive | – | inconclusive: 16 µM [cytotoxic, single point]
